Measured values published in PubChem BioAssay AID1656 (Sanford-Burnham Center for Chemical Genomics, 2009).
The other results are listed elsewhere or left out. These are further read-outs of the screen, such as a control signal, another cell line or another target. No call is given for them. Most of these compounds were active or inconclusive in the main read-out, so they are no random draw.

Experiment: inhibitors of hepatocyte lipid droplet formation, primary screen, imaging, high-throughput imaging, BODIPY stain (AID 1656);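 note: cells counted across two imaged fields per well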
Conditions: AML12 mouse hepatocytes, oleate lipid droplets, measured here: cell count, cytotoxicity flag, at 6.5 µM
Outline: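 Test system: AML12 mouse liver cells; schedule: overnight exposure; technique: high-content imaging of BODIPY-stained droplets and DAPI nuclei; read-out: % inhibition of corrected integrated BODIPY droplet signal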

Row | Compound | cell count [cells]
1 | c1ccc(Oc2cccc(CN3CCCCC3)c2)cc1 | 773
2 | O=C(NCc1ccc(C(=O)O)cc1)OCc1ccccc1 | 695
3 | CCOc1ccc(-c2nonc2NC(=O)c2ccco2)cc1 | 665
4 | CC1CCCN(C2=C(NS(=O)(=O)c3ccc(Cl)cc3)C(=O)c3ccccc3C2=O)C1 (configuration not stated) | 529
5 | Cc1ccc(-c2cc(C(=O)N/N=C/c3c(C)nn(-c4ccccc4)c3C)n[nH]2)s1 | 235
6 | COc1cccc(/C(C)=N/NC(=O)Cc2c(C)[nH][nH]c2=O)c1 | 614
7 | CCc1ccc(NC(=O)CSc2nnc(C)c(=O)n2N)cc1 | 655
8 | Cc1cc(N2CCOCC2)n2nc(C)c(-c3ccccc3Cl)c2n1 | 829
9 | CCOc1ccc(NC(=O)CN(C)c2ccc(S(=O)(=O)N(C(C)C)C(C)C)cn2)cc1OCC | 734
10 | CCc1cc(C(=O)N2CCc3c([nH]c4ccccc34)C2c2ccc(OC)cc2F)no1 (configuration not stated) | 650
11 | COC(=O)C1=C(C)N=c2s/c(=C3\C(=O)Nc4ccccc43)c(=O)n2C1c1ccccc1 (configuration not stated) | 700
12 | Cc1cc2c(cc1S(=O)(=O)Nc1cccc(C)c1C)n(C)c(=O)c(=O)n2C | 782
13 | Cc1cc2c(cc1C)N(C(=O)CSC1=NCCS1)C(C)(C)c1ssc(=S)c1-2 | 621
14 | CCOc1ccc(CCNC(=O)CCCn2c(=O)c3cccn3c3cccnc32)cc1OCC | 762
15 | Cc1ccc(NC(=O)COC(=O)C(NS(=O)(=O)c2ccc(Cl)cc2)C(C)O)cc1C (configuration not stated) | 233
16 | CCN(CC(=O)Nc1c(F)cccc1F)C(=O)CCCc1c[nH]c2ccccc12 | 838

Row | Compound | cell count [cells]
17 | O=C(NCCc1cccnc1)c1cc(COc2ccc(F)cc2F)on1 | 733
18 | COc1ccccc1/C=C/C(=C1/C(=O)N(c2ccccc2)N=C1C)c1ccc(C)cc1 | 502
19 | CC(=O)Nc1cccc(OCC(=O)NC(C)c2ccc3ccccc3c2)c1 (configuration not stated) | 805
20 | COc1ccc(CN(C)C(=O)CNC(=O)Cc2cccc3ccccc23)c(OC)c1OC | 666
21 | O=C(NCCO)c1cc2ccccc2cc1O | 790
22 | CC(C)C[C@H]1C(=O)N2CCC[C@H]2[C@]2(O)O[C@](NC(=O)[C@@H]3C=C4c5cccc6[nH]c(Br)c(c56)CC4N(C)C3)(C(C)C)C(=O)N12 (some centres not stated) | 727
23 | Cc1ccc(C(=O)CC2(O)C(=O)N(CCc3ccccc3)c3ccc(Br)cc32)o1 (configuration not stated) | 750
24 | CC1=C/C(=N\Nc2ccccc2[N+](=O)[O-])CC(C)(C)C1 | 706
25 | COc1ccc(OC)c(NC(=O)CCCNC(=O)c2ccc(Cl)cc2)c1 | 796
26 | COc1ccc(C(=O)CCC(=O)NCCc2c[nH]c3ccccc23)cc1OC | 820
27 | O=C(c1ccc(Cl)cc1)c1cc([N+](=O)[O-])ccc1N1CCOCC1 | 242
28 | Cc1cccc(NC(=O)[C@H](C)NC(=O)[C@@H]2Cc3ccccc3CN2C(=O)OC(C)(C)C)c1 | 741
29 | COC(=O)c1ccc2c(c1)C(C)(C)C(/C=C/c1ccc(O)cc1)=[N+]2C | 480
30 | CCc1ccccc1NS(=O)(=O)c1cc2c(cc1C)n(C)c(=O)c(=O)n2C | 753
31 | Cc1cc(N2CCN(C)CC2)n2nc(-c3ccc(Cl)cc3)nc2n1 | 711
32 | COc1ccccc1-c1nnc2sc(-c3ccc(N(C)C)cc3)nn12 | 126
